# From the supplement of paper PMC12067230
# The data scatter; read single values as rough.
# Test: amyloid nucleation score relative to library mode (yeast Sup35 reporter selection) (log enrichment difference); higher = more amyloid nucleation; sequences are the first 22 residues of the Bri2 peptide extended by up to 12 random residues
# Settings: random library (experiment): 1;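 active = nucleation score significantly above 0 at FDR 0.05; inactive = not significantly above 0 or absent from output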
# 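Note: [psi-pin-] Saccharomyces cerevisiae expressing SupN fusions, induced by 100 µM Cu2SO4, selected 7 d at 30 °C without adenine and uracil, scored by deep sequencing of output versus input.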
row,Sequence,amyloid nucleation score
1,EASNCFAIRHFENKFAVETLICTDRGKRQVRSVA,inactive
2,EASNCFAIRHFENKFAVETLICEDAASYSVMWEV,1.45
3,EASNCFAIRHFENKFAVETLICGLCTSLTAYVYK,6.48
4,EASNCFAIRHFENKFAVETLICDYVTRQTPRSHA,inactive
5,EASNCFAIRHFENKFAVETLICLSVTSESSHALM,2.33
6,EASNCFAIRHFENKFAVETLICKAEVSARSQH,1.58
7,EASNCFAIRHFENKFAVETLICLRVHSWYVYMYR,inactive
8,EASNCFAIRHFENKFAVETLICFSTRMKWRFK,inactive
9,EASNCFAIRHFENKFAVETLICCFALVRESEG,7.82
10,EASNCFAIRHFENKFAVETLICQCVPVSAVYDTG,5.78
11,EASNCFAIRHFENKFAVETLICAGVAYFGVMKGS,7.08
12,EASNCFAIRHFENKFAVETLICYRWVQCRTMWLR,inactive
13,EASNCFAIRHFENKFAVETLICRNMKSMCMWSFR,-0.0479
14,EASNCFAIRHFENKFAVETLICCTNLFAIDPVVL,5.51
15,EASNCFAIRHFENKFAVETLICFD,-0.101
16,EASNCFAIRHFENKFAVETLICGLVDMRSHATLL,inactive
17,EASNCFAIRHFENKFAVETLICDSDYIVASYSVG,inactive
18,EASNCFAIRHFENKFAVETLICLSQSFSVVIMSC,-0.551
19,EASNCFAIRHFENKFAVETLICYSVGRYTSLPIT,inactive
20,EASNCFAIRHFENKFAVETLICVEVVWKSRVRIK,-0.622
21,EASNCFAIRHFENKFAVETLICWILTCKMWVSWR,-0.412
22,EASNCFAIRHFENKFAVETLICCKDRWTETRDRK,1.11
23,EASNCFAIRHFENKFAVETLICGSSGRRLRYGSR,2.2
24,EASNCFAIRHFENKFAVETLICTYKANSWCLWAA,inactive
25,EASNCFAIRHFENKFAVETLICVYLPCGTFVVDG,6.98
26,EASNCFAIRHFENKFAVETLICVECDTSKKNGTV,1.06
27,EASNCFAIRHFENKFAVETLICDVGISYVGPRCD,2.45

row,Sequence,amyloid nucleation score
1,EASNCFAIRHFENKFAVETLICAPTVGTQGDLYV,inactive
2,EASNCFAIRHFENKFAVETLICFSANRVGLSPCR,inactive
3,EASNCFAIRHFENKFAVETLICRFEMTVSERAEP,inactive
4,EASNCFAIRHFENKFAVETLICARRRWKVVTGGL,inactive
5,EASNCFAIRHFENKFAVETLICTSLVANPAVKES,inactive
6,EASNCFAIRHFENKFAVETLICCARRPSRWGLLR,inactive
7,EASNCFAIRHFENKFAVETLICLGVVICVRGLRR,inactive
8,EASNCFAIRHFENKFAVETLICLRQFRVTEKGFT,inactive
9,EASNCFAIRHFENKFAVETLICVIVFRFTLGDQL,inactive
10,EASNCFAIRHFENKFAVETLICLWVVWVVHVKPG,inactive
11,EASNCFAIRHFENKFAVETLICYCRCRMMRSLPW,inactive
12,EASNCFAIRHFENKFAVETLICISRCNSSTLAWM,1.55
13,EASNCFAIRHFENKFAVETLICAWVDTCVRCQIY,inactive
14,EASNCFAIRHFENKFAVETLICNNLSSEMRLAET,-0.211
15,EASNCFAIRHFENKFAVETLICFETLSS,inactive
16,EASNCFAIRHFENKFAVETLICGLGSREALAMDG,inactive
17,EASNCFAIRHFENKFAVETLICFYPFQ,6.46
18,EASNCFAIRHFENKFAVETLICWVVMAQ,inactive
19,EASNCFAIRHFENKFAVETLICCYVCACDWVGTV,5.4
20,EASNCFAIRHFENKFAVETLICTY,inactive
21,EASNCFAIRHFENKFAVETLICVDSSMSASTSLS,inactive
22,EASNCFAIRHFENKFAVETLICFIILPRLPNVNA,inactive
23,EASNCFAIRHFENKFAVETLICFTSSSMRSRL,4.2
24,EASNCFAIRHFENKFAVETLICHGGFGAACGVEA,inactive
25,EASNCFAIRHFENKFAVETLICYRCFSRDAVGAQ,inactive
26,EASNCFAIRHFENKFAVETLICPCS,1.01

# Same assay, conditions: random library (experiment): 2
row,Sequence,amyloid nucleation score
1,EASNCFAIRHFENKFAVETLICYTYLYSTSWIVS,inactive
2,EASNCFAIRHFENKFAVETLICLHTCIFSGDM,3.68
3,EASNCFAIRHFENKFAVETLICMSLCSQVVLVGV,-0.174
4,EASNCFAIRHFENKFAVETLICYSRYFKAKSLSK,inactive
5,EASNCFAIRHFENKFAVETLICRFHF,inactive
6,EASNCFAIRHFENKFAVETLICMIPFFGNLCSVR,4.77
7,EASNCFAIRHFENKFAVETLICCVNCW,7.93
8,EASNCFAIRHFENKFAVETLICEDSKLRGILKGA,-0.0583
9,EASNCFAIRHFENKFAVETLICVRNTFYSNNCWD,inactive
10,EASNCFAIRHFENKFAVETLICVQFC,7.4
11,EASNCFAIRHFENKFAVETLICMKVGSCGHSWWC,6.57
12,EASNCFAIRHFENKFAVETLICCVLEGKYRAT,7.27
13,EASNCFAIRHFENKFAVETLICGNLELSVMRMVT,inactive
14,EASNCFAIRHFENKFAVETLICCVIISNIGFLGR,5.24
15,EASNCFAIRHFENKFAVETLICYDMRYSFLRMFG,inactive
16,EASNCFAIRHFENKFAVETLICTNCGS,inactive
17,EASNCFAIRHFENKFAVETLICKVCCYCKQGKFE,inactive
18,EASNCFAIRHFENKFAVETLICLFTYCVVMSLVE,1.58
19,EASNCFAIRHFENKFAVETLICPACFLLNVSVKT,inactive
20,EASNCFAIRHFENKFAVETLICWNIDKIPLSSV,inactive
21,EASNCFAIRHFENKFAVETLICEGHQAISNILAV,inactive
22,EASNCFAIRHFENKFAVETLICCLQCSIGVPMLS,2.9

row,Sequence,amyloid nucleation score
1,EASNCFAIRHFENKFAVETLICWII,inactive
2,EASNCFAIRHFENKFAVETLICFPEKLSQWGVVN,-0.626
3,EASNCFAIRHFENKFAVETLICPLRNSSIRCQNM,0.938
4,EASNCFAIRHFENKFAVETLICFVYLSPFRLGSY,inactive
5,EASNCFAIRHFENKFAVETLICGFVLGMRNIGLC,inactive
6,EASNCFAIRHFENKFAVETLICYDSHRGVLRYKS,2.46
7,EASNCFAIRHFENKFAVETLICNYAWYSTSYRFV,inactive
8,EASNCFAIRHFENKFAVETLICLMSTIHLPLIDW,inactive
9,EASNCFAIRHFENKFAVETLICIFVM,5.6
10,EASNCFAIRHFENKFAVETLICIFSHCIPNTERM,-0.182
11,EASNCFAIRHFENKFAVETLICFNHV,inactive
12,EASNCFAIRHFENKFAVETLICLMFDDQTIIMS,inactive
13,EASNCFAIRHFENKFAVETLICDLSWLSECWGSD,7.12
14,EASNCFAIRHFENKFAVETLICNVFKSNLSDTRM,5.54
15,EASNCFAIRHFENKFAVETLICFFRYSWDTDLWV,inactive
16,EASNCFAIRHFENKFAVETLICWIGVLFCAGYSG,4.84
17,EASNCFAIRHFENKFAVETLICFLKIRLKRVEYC,inactive
18,EASNCFAIRHFENKFAVETLICLSFVIVGHSIVF,inactive
19,EASNCFAIRHFENKFAVETLICVIMWQNLPYFGK,inactive
20,EASNCFAIRHFENKFAVETLICVAWG,inactive
21,EASNCFAIRHFENKFAVETLICNGCCSGTHISKL,7.49

# Same assay, conditions: random library (experiment): 3
row,Sequence,amyloid nucleation score
1,EASNCFAIRHFENKFAVETLICCVLRVQDPVA,6.63
2,EASNCFAIRHFENKFAVETLICVFIDYTQGYWKE,inactive
3,EASNCFAIRHFENKFAVETLICCSMLEPCRCRLV,8.5
4,EASNCFAIRHFENKFAVETLICLIVWRQGFQT,inactive
5,EASNCFAIRHFENKFAVETLICDSGADLGINGSG,inactive
6,EASNCFAIRHFENKFAVETLICAWFSVLSCARYL,inactive
7,EASNCFAIRHFENKFAVETLICWYKWSFRALCCV,inactive
8,EASNCFAIRHFENKFAVETLICTLDVISRILMTS,inactive
9,EASNCFAIRHFENKFAVETLICQDRYMWNAGYCK,inactive
10,EASNCFAIRHFENKFAVETLICLTGSGHTRSRVW,3.65
11,EASNCFAIRHFENKFAVETLICDLLIRSDLRRGG,1.48
12,EASNCFAIRHFENKFAVETLICHRVAMTAFHNPK,1.88
13,EASNCFAIRHFENKFAVETLICRYLYLFSYTCHD,inactive
14,EASNCFAIRHFENKFAVETLICDQGWLPAGDWSW,inactive
15,EASNCFAIRHFENKFAVETLICANLWTGNRFAG,8.89
16,EASNCFAIRHFENKFAVETLICGASYGLLSTGQE,inactive
17,EASNCFAIRHFENKFAVETLICWG,inactive
18,EASNCFAIRHFENKFAVETLICYFVTFCYKVRAR,inactive
19,EASNCFAIRHFENKFAVETLICGAYRVFSTDVAL,2.99
20,EASNCFAIRHFENKFAVETLICRCMQRFEVVAWG,inactive
21,EASNCFAIRHFENKFAVETLICRVQVPGFRLGDY,inactive
22,EASNCFAIRHFENKFAVETLICCTAKHIHLRSCT,inactive
23,EASNCFAIRHFENKFAVETLICFVRWVGMYVDTW,inactive
